B1: PhoQ; a variant is named by its letters at X, in order, P23837 (parent)
chain: MKKLLRLFFPLSLRVRFLLATAAVVLVLSLAYGMVALIGYSVSFDKTTFRLLRGESNLFYTLAKWENNKLHVELPENIDKQSPTMTLIYDENGQLLWAQRDVPWLMKMIQPDWLKSNGFHEIEADVNDTSLLLSGDHSIQQQLQEVREDDDDAEMTHSVAVNVYPATSRMPKLTIVVVDTIPVELKSSYMVWSWFIYVLSANLLLVIPLLWVAAWWSLRPIEALAKEVRELEEHNRELLNPATTRELTSLVRNLNRLLKSERERYDKYRTTLTDLTHSLKTPLXXLQXXLRSLRSEKMSVSDAEPVMLEQISRISQQIGYYLHRASMRGGTLLSRELHPVAPLLDNLTSALNKVYQRKGVNISLDISPEISFVGEQNDFVEVMGNVLDNACKYCLEFVEISARQTDEHLYIVVEDDGPGIPLSKREVIFDRGQRVDTLRPGQGVGLAVAREITEQYEGKIVAGESMLGGARMEVIFGRQHSAPKDE

Some of the results follow.

This test covers variants of B1. Kind of test: enrichment ratio after two sorts for PhoP signalling (ratio (wild type AVST 3.29)); higher = more functional. To be noted: with PhoP (E. coli).
NCRA: the enrichment ratio is at most 0.25.
The figure for DRDG is at most 0.25.
The figure for KRDK is at most 0.25; for ENCI it is at most 0.25; for RQPY it is at most 0.25.
The figure for HREH is at most 0.25; for EYDE it is at most 0.25.
Turning to EEII, the enrichment ratio was at most 0.25.
The figure for SECW is 9.58; for QFWT it is at most 0.25; for HEEE it is at most 0.25.
In the case of DMNL, the enrichment ratio was at most 0.25.
For SWPH the value was at most 0.25; for FDSR, at most 0.25.
Turning to KHLN, the enrichment ratio is at most 0.25.
For MVDP the value was at most 0.25.
The figure for VFSQ is at most 0.25; for FGEM it is at most 0.25; for QLNF it is at most 0.25.
The figure for TWVS is at most 0.25.
On to SGDP, for which the enrichment ratio was at most 0.25.
For MAVT the value was at most 0.25.
The figure for FSCC is 1.27; for DSEL it is at most 0.25; for PQNK it is at most 0.25.
In the case of KMLL, the enrichment ratio is at most 0.25.
For NMFR the value was at most 0.25; for PGIG, at most 0.25; for TCTC, 11.4.
For ILMS the value was at most 0.25; for GSYH, at most 0.25.
The figure for SKHP is at most 0.25.
With HVFL, the enrichment ratio was at most 0.25.
The figure for SDIF is at most 0.25; for ITPF it is at most 0.25; for SHHN it is at most 0.25.
Turning to SEGF, the enrichment ratio turned out to be 12.8.
Regarding TTID, the enrichment ratio was at most 0.25.
For the variant GYAN, the enrichment ratio is at most 0.25.
For GWII the value was at most 0.25; for EPHS, at most 0.25; for DIFF, at most 0.25.
Take ENAF: the enrichment ratio is at most 0.25.
The figure for KMFN is at most 0.25.
The figure for VKYC is at most 0.25; for NHSI it is at most 0.25.
For EEPL the value was at most 0.25.
As for GAWF, the enrichment ratio was at most 0.25.
With IMSS, the enrichment ratio is at most 0.25.
The figure for SHVQ is at most 0.25; for GQPM it is at most 0.25.
For DVHW, the enrichment ratio is at most 0.25.
The figure for PEYS is at most 0.25; for ETLV it is at most 0.25; for MNRQ it is at most 0.25.
For AMDE the value was at most 0.25.
For RMMK the value was at most 0.25.
For the variant REQL, the enrichment ratio is at most 0.25.
In the case of SCMI, the enrichment ratio amounted to 27.9.
The figure for SGYL is 7.04; for KTDE it is at most 0.25.
As to IPHL, the enrichment ratio is at most 0.25.
As to VQAA, the enrichment ratio is at most 0.25.
Take MVPA: the enrichment ratio was at most 0.25.
The figure for WQNR is at most 0.25; for IDVV it is at most 0.25.
The figure for DAFH is at most 0.25; for YCSL it is at most 0.25.
The figure for WPGI is at most 0.25.
As to AENP, the enrichment ratio was at most 0.25.
For WVVV the value was at most 0.25; for VFRP, at most 0.25; for PAMY, at most 0.25.
Take LCDT: the enrichment ratio is at most 0.25.
The figure for NWCP is at most 0.25.
For YIGD the value was 0.38.
The figure for LQAW is at most 0.25.
Take WIFR: the enrichment ratio was at most 0.25.
The figure for RYQR is at most 0.25.
The figure for KYPH is at most 0.25.
For IEKA the value was at most 0.25; for GWCA, at most 0.25; for EGRQ, at most 0.25.
For the variant DEIL, the enrichment ratio is at most 0.25.
The figure for WNKC is at most 0.25; for LYKG it is at most 0.25.
The figure for MNCE is at most 0.25; for YKDD it is at most 0.25; for PFLQ it is at most 0.25.
For LRCK the value was at most 0.25; for KHRL, at most 0.25; for NVKF, at most 0.25.
On to VQWQ, for which the enrichment ratio was at most 0.25.
For QKDV the value was at most 0.25; for NAIN, at most 0.25; for NFLV, at most 0.25.
The figure for WFKL is at most 0.25.
For SNRG the value was at most 0.25; for DSKI, at most 0.25; for YAIR, at most 0.25.
Consider IVWW, for which the enrichment ratio is at most 0.25.
FKTQ: the enrichment ratio is at most 0.25.
PPTV: the enrichment ratio is at most 0.25.
Take SITE: the enrichment ratio amounted to 3.32.
The figure for SEMI is 17.1; for FTIT it is at most 0.25.
The figure for PWKR is at most 0.25; for YGQK it is at most 0.25; for MEFD it is at most 0.25.
Consider NEVD, for which the enrichment ratio was at most 0.25.
For WKHT the value was at most 0.25; for AREA, at most 0.25; for ASMR, at most 0.25.
For NIGL the value was at most 0.25; for TALC, 20.9; for HFKS, at most 0.25.
For WKMI the value was at most 0.25.
With ECQK, the enrichment ratio is at most 0.25.
Regarding DVDS, the enrichment ratio was at most 0.25.
For the variant MRPG, the enrichment ratio was at most 0.25.
Consider LHSM, for which the enrichment ratio was at most 0.25.
The figure for IRTG is at most 0.25; for ERGE it is at most 0.25; for NVDP it is at most 0.25.
On to YCMR, for which the enrichment ratio is at most 0.25.
For FFNR the value was at most 0.25; for LELH, 0.321; for SYLY, 0.406.
The figure for GSYW is at most 0.25; for PWNV it is at most 0.25.
For PHVC the value was at most 0.25.
With TEPR, the enrichment ratio was at most 0.25.
For LCYK the value was at most 0.25.
For KKNY the value was at most 0.25; for YEMK, at most 0.25.
As for EGSS, the enrichment ratio was at most 0.25.
The figure for IPLF is at most 0.25.
For RFAP the value was at most 0.25; for DWTF, at most 0.25.
The figure for VVAD is at most 0.25.
Take NILV: the enrichment ratio came to 0.722.
For DVLY the value was at most 0.25; for NGSE, at most 0.25; for RMFQ, at most 0.25.
As to ILWP, the enrichment ratio was at most 0.25.
The figure for THIT is at most 0.25; for AVAM it is 3.19; for EHVC it is at most 0.25.
Turning to PLYC, the enrichment ratio is at most 0.25.
For WFFV the value was at most 0.25; for PVNP, at most 0.25; for DCHW, at most 0.25.
For IHAV the value was at most 0.25.

Source of the values: a collection of fitness landscapes (doi:10.1126/science.1257360).
